Source: patent US12157730B2, “Heteroaryl derivative, method for producing same, and pharmaceutical composition comprising same as effective component” (VORONOI INC., priority 2019, dated 2024)
At least one structure is not confirmed: it was looked up by name or label, or the drawing left a doubt.

Molecular target: T1, Ba/F3 cell EGFR Exon20 ins NPH (Homo sapiens, UniProt P00533, INS773NPH)
T1 construct: expressed in transfected cells; host or cells: Ba/F3
Experiment: Ba/F3 cell proliferation suppression, EGFR Exon20 ins NPH
Type: cell-based
Conditions: GI50 class; Ba/F3 cell line with NPH inserted at Exon20 of EGFR; 72 hours
Method: The following experiment was carried out to evaluate the suppression activity of the compounds according to the present invention against proliferation of Ba/F3 and lung cancer cells which express EGFR mutations.
Of the cancer cell lines expressing the EGFR gene, A549 was cultured after adding 10% FBS (HyClone) to DMEM (Invitrogen), and RPMI-1640 (Invitrogen) with 10% FBS was used for the other cancer cells. For the Ba/F3 cells, RPMI-1640 with 10% FBS and 5 ng/ml IL-3 (R&D Systems) was used. The transduced Ba/F3 cells were cultured by adding 1 ug/ml puromycin (Invitrogen) to the same medium.
24 hours before treatment with the compounds, 3000 to 5000 cells were distributed into each well of a white clear bottom 96 well plate (Corning). The compounds were diluted in dimethylsulfoxide (dilution ratio 3:1; 12 concentrations total) and injected 0.5 ul each for a final concentration of 0.3 nM to 50 um. As for measurement of live cells, 72 hours after treatment with the compounds, a CellTiter-Glo luminescent cell-viability reagent (Promega) was used to store the cells at room temperature for 10 minutes, followed by measurement of luminescence using a reader (SynergyNeo, Biotek). Each test was repeated three times.
The result was calculated as a cell growth ratio (%) compared to a control. The program GraphPad Prism version 5.0 was used to draw the graphs and calculate the GI50 values.

Row | Compound | Ba/F3 (NPH) Activity
1 | C=CC(=O)Nc1cc(Nc2cc(N3OCC[C@@H]3c3ccc(Cl)c(F)c3)ncn2)c(OC)cc1N1CCC(N2CCOCC2)CC1 [compound 750, N-(5-((6-((R)-3-(4-chloro-3-fluorophenyl)isoxazolidine-2-yl)pyrimidine-4-yl)amino)-4-methoxy-2-(4-morpholinopiperidine-1-yl)phenyl)acrylamide] | A (GI50 < 50 nM)
2 | C=CC(=O)Nc1cc(Nc2cc(N3OCC[C@@H]3Cc3cccc(F)c3C)ncn2)c(OC)cc1N1CCN(C)CC1 [compound 1001, N-(5-((6-((S)-3-(3-fluoro-2-methylbenzyl)isoxazolidine-2-yl)pyrimidine-4-yl)amino)-4-methoxy-2-(4-methylpiperazine-1-yl)phenyl)acrylamide] | A (GI50 < 50 nM)
3 | C=CC(=O)Nc1cc(Nc2cc(N3OCC[C@@H]3c3cccc(Cl)c3F)ncn2)c(OC)cc1N1CCN(CC)CC1 [compound 791, N-(5-((6-((R)-3-(3-chloro-2-fluorophenyl)isoxazolidine-2-yl)pyrimidine-4-yl)amino)-2-(4-ethylpiperazine-1-yl)-4-methoxyphenyl) acrylamide] | B (50 nM ≤ GI50 < 500 nM)
4 | C=CC(=O)Nc1cc(Nc2cc(N3OCC[C@@H]3c3cccc(F)c3)ncn2)c(OC)cc1N1CCC(N2CCC(N(C)C)CC2)CC1 [compound 749, N-(2-(4-(dimethylamino)-[1,4'-bipiperidine]-1'-yl)-5-((6-((R)-3-(3-fluorophenyl)isoxazolidine-2-yl)pyrimidine-4-yl)amino)-4-methoxyphenyl) acrylamide] | A (GI50 < 50 nM)
5 | C=CC(=O)Nc1cc(Nc2cc(N3OCC[C@@H]3Cc3cccc(F)c3Cl)ncn2)c(OC)cc1N1CCC(N2C[C@H]3C[C@@H]2CO3)CC1 [compound 1041, N-(2-(4-((1R,4R)-2-oxa-5-azabicyclo [2.2.1]heptane-5-yl)piperidine-1-yl)-5-((6-((S)-3-(2-chloro-3-fluorobenzyl)isoxazolidine-2-yl)pyrimidine-4-yl)amino)-4-methoxyphenyl) acrylamide] | A (GI50 < 50 nM)
